These results are taken from the supplement of paper PMC10185492.

The other results are listed elsewhere or left out. Read counts after selection give these values, which scatter widely.

In this assay the test system is SARS-CoV-2 3CLpro (nsp5). The assay is described as follows: substrate phage enrichment score (protease-eluted vs HEPES control, +1 offset) (ratio); higher = better cleaved substrate. The note with it: selection round: 4; protease elution time: 15 min. On the procedure:
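Random heptapeptide substrate phage display (M13 pIII fusion, heptapeptide between an N-terminal biotinylated AviTag GLNDIFEAQKIEWHE and pIII; phages immobilised on streptavidin) eluted by cleavage with 50 nM protease in 20 mM HEPES at 37 °C. Selected phages were NGS sequenced, and the enrichment score is (reads in protease sample + 1)/(reads in HEPES blank-selection control + 1).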
Consider SRCPRNE, for which the “substrate phage enrichment score” value was > 48.
With RDTARCR, the “substrate phage enrichment score” value was determined as 3.4.
On to RALTPNV, for which the “substrate phage enrichment score” value was determined as 8.5.
As for IPSCRCK, the figure is 0.261; as for SDAVMET, 0.714; as for CERAVMQ, 0.91.
As for KNMTPYC, the figure is > 26; as for PGANVLQ, 11; as for SAAAHNN, 1.18.
In the case of LTGESWH, the “substrate phage enrichment score” value is 5.
SAAPHHQ: the “substrate phage enrichment score” value came to 1.35.
Regarding PTSDCLT, the “substrate phage enrichment score” value was > 23.
SQNAKLQ: the “substrate phage enrichment score” value was > 38.
As for LQNLNPT, the “substrate phage enrichment score” value turned out to be 0.469.
The value for NTEQYFQ was > 23; that for HGQLNVN was > 53.
With SLHTRHC, the “substrate phage enrichment score” value amounted to 0.211.
Regarding AQNRDGI, the “substrate phage enrichment score” value was > 71.
Regarding HLNEVFR, the “substrate phage enrichment score” value is > 21.
The value for PSTRLQS was > 394; that for CPHESRS was > 81; that for KHGQPCR was > 37.
For STSVTLQ, the “substrate phage enrichment score” value was > 35.
SQCMWST: the “substrate phage enrichment score” value worked out at 5.25.
For ASSSSAS, the “substrate phage enrichment score” value was 2.25.
In the case of LPSHDQR, the “substrate phage enrichment score” value is > 21.
With CPNRLHT, the “substrate phage enrichment score” value stood at 2.91.
On to ARPRPAL, for which the “substrate phage enrichment score” value worked out at 1.73.
As for IRSGPSQ, the “substrate phage enrichment score” value was determined as 0.375.
Take RPINGKA: the “substrate phage enrichment score” value turned out to be 4.67.
Take GAEVRHH: the “substrate phage enrichment score” value is 1.
As for WLLESGG, the figure is 4.2; as for MNHDENS, > 28; as for ARRRCEM, > 32.
As to TGAKSRT, the “substrate phage enrichment score” value came to 1.83.
In the case of FSFEPGP, the “substrate phage enrichment score” value turned out to be 5.
Regarding VQLQSGQ, the “substrate phage enrichment score” value was > 29.
With CAWPIHR, the “substrate phage enrichment score” value was 6.93.
The value for VKSAYDT was > 21.
As for CTTVPTN, the figure is 8; as for TGRIGNC, 0.254; as for SCTFVNE, 27.
As for TQGKSGF, the figure is 1.2.
For DNQRLRP, the “substrate phage enrichment score” value was 0.238.
As to KTAICRQ, the “substrate phage enrichment score” value is > 27.
As to DFTPTAR, the “substrate phage enrichment score” value was 13.5.
On to QYFQGGS, for which the “substrate phage enrichment score” value worked out at 1.18.
As for RKNCGHL, the figure is 1.12.
The value for LETKLQS was > 67; that for PDCAGMS was 1.85.
As to SRSKDVL, the “substrate phage enrichment score” value turned out to be 3.33.
As to NGRTNYC, the “substrate phage enrichment score” value was 3.25.
As for SNTDAPE, the figure is 2.62; as for VMMMCGR, 2.13.
For FTAAHHH, the “substrate phage enrichment score” value turned out to be 1.61.
As for GRAAAHH, the figure is 1.32; as for EGEWNPG, 1.75; as for ALCPDVN, 1.62.
AQTRLMA: the “substrate phage enrichment score” value is > 30.
On to SSKILMP, for which the “substrate phage enrichment score” value was 1.91.
For PWEGRQC, the “substrate phage enrichment score” value came out at 4.2.
For the substance GAGRLRQ, the “substrate phage enrichment score” value came to 2.43.
As for NTTAHHH, the figure is 0.519.
On to SRCSCAH, for which the “substrate phage enrichment score” value is > 68.
The value for KQYFQGG was 0.964; that for QRTPKCG was 2.42; that for SSTAAHH was 1.36.
The value for EEAAHHH was 1; that for PHHHHGA was 0.579; that for KAPVLHS was > 30.
As for SILQGSA, the figure is > 68; as for DHHHGAA, 6.1; as for TTSKSLY, 7.33.
Turning to WQPSKLQ, the “substrate phage enrichment score” value amounted to 116.
DRRDAIT: the “substrate phage enrichment score” value is 15.7.
SPACVTT: the “substrate phage enrichment score” value is > 44.
On to DLRADNL, for which the “substrate phage enrichment score” value was found to be 0.471.
In the case of LRAGICR, the “substrate phage enrichment score” value is > 48.
On to SWRVSLQ, for which the “substrate phage enrichment score” value was > 28.
Consider TEKRYPR, for which the “substrate phage enrichment score” value stood at 1.08.
With GDTAHWR, the “substrate phage enrichment score” value turned out to be 2.75.
Regarding QRFNVTD, the “substrate phage enrichment score” value is > 48.
As for RHQVNGN, the “substrate phage enrichment score” value was > 23.
With ALSGPPT, the “substrate phage enrichment score” value came out at 0.571.
The value for HSGAIWK was 1.
On to YQKATAN, for which the “substrate phage enrichment score” value was > 22.
Consider STEAMTE, for which the “substrate phage enrichment score” value was 1.62.
As to GPTAAHH, the “substrate phage enrichment score” value was 1.78.
As for HVECPHV, the “substrate phage enrichment score” value was 2.18.
For the substance LSPTVLH, the “substrate phage enrichment score” value is > 77.
As to WRDTNLQ, the “substrate phage enrichment score” value was determined as 2.52.
As for YGRVRLQ, the figure is > 28.
